From PubChem BioAssay AID1768 (National Center for Advancing Translational Sciences (NCATS), 2009)
Screen size: about 270,000 compounds; about 620 (0.23%) were called active. This list was built around the results that the source calls inconclusive (neither active nor inactive); the mix of calls is not that of the screen. The call rests on the fitted dose curve; in most records, active means well fitted inhibition curve with a large enough effect in the polarisation, with a control signal flat (not every such curve was filed as active); inconclusive means small, poorly fitted or top-dose-only effect, or effect the other way, or a change in a side signal; inactive means no such curve, though single readings can be large or run the other way; the % refers to the polarisation. Where the call is inconclusive, the potency comes from a doubtful curve fit. “Side channel” marks fits to a control or component signal instead of the main read-out.

Biological target: Menin (Homo sapiens) (UniProt O00255)
Sequence of UniProt O00255 (O00255 whole entry, looked up): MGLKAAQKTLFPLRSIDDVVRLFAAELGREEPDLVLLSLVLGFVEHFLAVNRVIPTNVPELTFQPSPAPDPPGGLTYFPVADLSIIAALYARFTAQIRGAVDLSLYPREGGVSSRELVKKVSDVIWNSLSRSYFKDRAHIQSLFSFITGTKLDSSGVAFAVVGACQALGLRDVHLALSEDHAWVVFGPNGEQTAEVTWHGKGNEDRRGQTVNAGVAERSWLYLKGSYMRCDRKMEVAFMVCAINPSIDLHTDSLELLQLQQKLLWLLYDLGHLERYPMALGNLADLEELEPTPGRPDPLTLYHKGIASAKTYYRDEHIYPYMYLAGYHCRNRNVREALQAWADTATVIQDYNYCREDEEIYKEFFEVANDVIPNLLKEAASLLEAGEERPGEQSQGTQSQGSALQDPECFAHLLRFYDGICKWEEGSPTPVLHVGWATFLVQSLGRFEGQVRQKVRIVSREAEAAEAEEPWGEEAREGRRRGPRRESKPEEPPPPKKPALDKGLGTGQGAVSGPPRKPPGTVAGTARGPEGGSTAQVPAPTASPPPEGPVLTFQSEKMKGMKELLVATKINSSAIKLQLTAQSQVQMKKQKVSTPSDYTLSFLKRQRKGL
Experiment: qHTS Assay for Inhibitors Targeting the Menin-MLL Interaction in MLL Related Leukemias: Competition With Texas Red Labeled MLL-derived Mutant Peptide
Settings: fluorescence polarization; series mostly up to 61.6 µM
Potency means the concentration at half of the fitted maximal effect; tags describe the fitted curve by direction and shape or compound fluorescence and quenching.

Potency, inconclusive:
Cc1ccc(S(=O)(=O)c2n[nH]n3c2nc(=O)c2ccccc23)cc1 35.5 µM [quencher, side channel, single point]
COc1cc(CNc2ccc3[nH]c(=O)[nH]c3c2)cc(Br)c1OCc1ccccc1F 12.6 µM [quencher, side channel, partial curve]
CC1CN(S(=O)(=O)c2ccc(C(=O)Nc3nc(-c4cc5ccccc5o4)cs3)cc2)CC(C)O1 (stereo not given) 28.2 µM [inhibitor, single point]
COc1ccc(CN2CCCC(C(=O)c3ccc(Cl)cc3)C2)cc1Cn1cccn1 (stereo not given) 12.6 µM [fluorescent, side channel, partial curve]
O=[N+]([O-])c1ccc(O)c(/C=N\N=C2c3ccccc3-c3ccccc32)c1 28.2 µM [quencher, single point]
COc1cccc(-c2c(C(=O)N/N=C/c3cccs3)nnn2-c2nonc2N)c1 25.1 µM [quencher, single point]
COc1ccc(N2CCN(S(=O)(=O)c3ccc4c(c3)OCCO4)CC2)cc1 35.5 µM [quencher, side channel, single point]
OCCC1CN(Cc2nc3c(s2)CCCC3)CCN1CCc1ccccc1 (stereo not given) 39.8 µM [inhibitor, single point]
S=C(NCc1ccco1)N1CCN(c2cccc(Cl)c2)CC1 25.1 µM [quencher, side channel, single point]
O=C(NC(Cc1c[nH]c2ccccc12)C(=O)Nc1ccc(F)c([N+](=O)[O-])c1)c1cccs1 (stereo not given) 11.2 µM [quencher, side channel, partial curve]
Cc1ccc(OCC(=O)N2CCc3ccccc3C2)c(Br)c1 25.1 µM [fluorescent, side channel, partial curve]
NNC(=O)c1sc(-c2ccccc2)cc1N 25.1 µM [quencher, side channel, single point]
COCc1cc(C)nc(N/N=C/c2ccc(-c3ccc(Cl)cc3[N+](=O)[O-])o2)c1C#N 35.5 µM [quencher, side channel, single point]
COCCNC(=O)COC(=O)/C=C/c1cnc2ccccc2n1 3.55 µM [inhibitor, full curve]
CN(C)S(=O)(=O)c1cc(C(=O)O)c(NC2CCCCC2)cc1Cl 35.5 µM [quencher, side channel, single point]
COc1ccc(N2C(=O)C(CC(=O)Nc3ccccc3)N(Cc3ccccn3)C2=S)cc1 (stereo not given) 11.2 µM [quencher, side channel, partial curve]
C/C(=N\N=C(/N)SC1CC(=O)N(c2ccccc2)C1=O)c1cccs1 (stereo not given) 17.8 µM [quencher, side channel, partial curve]
CCCCNC(=O)[C@H]1C[C@H]1[C@@H](O)[C@H](CO)NC(=O)[C@H](COCc1ccccc1)NC(=O)OC(C)(C)C 35.5 µM [inhibitor, partial curve]
CC(C)C[C@H](NC(=O)[C@H](C)NC(=O)CNC(=O)[C@H](CCCCN)NC(=O)[C@H](CCCN=C(N)N)NC(=O)[C@H](C)NC(=O)[C@H](Cc1ccccc1)NC(=O)[C@@H](N)CCCN=C(N)N)C(=O)N[C@@H](CCCN=C(N)N)C(=O)N[C@@H](CCC(N)=O)C(=O)N[C@@H](CCCCN)C(=O)N[C@@H](CC(N)=O)C(=O)N[C@H](C(N)=O)C(C)C 7.94 µM [fluorescent, side channel, partial curve]
CC(C)Oc1cccc(C(=O)C2CCCN(Cc3cccn3-c3ccccn3)C2)c1 (stereo not given) 25.1 µM [inhibitor, single point]
Cc1cccc(-c2nnc(SCc3ccc(C#N)cc3)n2Cc2ccco2)c1 3.98 µM [fluorescent, side channel, partial curve]
O=C(CSc1nc2c(c(=O)n1-c1ccc(Br)cc1)SCC2)Nc1nccs1 10 µM [inhibitor, full curve]
COC(=O)c1ccc(NC(=O)CN(C2CCCCC2)S(C)(=O)=O)cc1 7.08 µM [inhibitor, single point]
CC1CCN(c2nc3c(c(=O)[nH]c(=O)n3C)n2CCCc2ccccc2)CC1 3.98 µM [fluorescent, side channel, full curve]
COc1ccc(-c2csc(Nc3cc(C)ccn3)n2)cc1OC 17.8 µM [quencher, side channel, partial curve]
O=C(c1ccco1)N1CCN=C1SCc1ccccc1F 28.2 µM [fluorescent, side channel, partial curve]
CCOc1ccc(-c2n[nH]c(C)c2Oc2ccc(OC)cc2)c(O)c1 17.8 µM [quencher, side channel, partial curve]
CCOc1ccc(N(CC(=O)NCCOc2ccccc2OC)S(=O)(=O)c2ccccc2)cc1 1.58 µM [inhibitor, partial curve]
CC(Nc1ccccc1)c1cc(Cl)ccc1O (stereo not given) 39.8 µM [quencher, side channel, partial curve]
COc1cc(N=c2ssnc2Cl)cc(OC)c1 31.6 µM [quencher, side channel, single point]
CC(C)(C)N(NC(=O)Nc1ccc(Cl)c(Cl)c1)C(=O)c1ccccc1 14.1 µM [quencher, side channel, partial curve]
Cc1cccc2[nH]c3c(N4CCC5(CC4)OCCO5)ncnc3c12 17.8 µM [quencher, side channel, single point]
COc1ccc(-n2nnc3c(=O)n(Cc4ccccc4C)cnc32)cc1 28.2 µM [quencher, side channel, single point]
COc1ccc(-n2nc(C(=O)N3CCN(Cc4ccc5c(c4)OCO5)CC3)c3ccccc3c2=O)cc1 2.82 µM [inhibitor, single point]
O=C(Cc1ccc(F)cc1)N(c1ccccc1)C1C=CS(=O)(=O)C1 (stereo not given) 39.8 µM [inhibitor, single point]
C=CCN1C(=O)/C(=C/c2ccccc2)S/C1=N/c1nccs1 10 µM [inhibitor, single point]
COCCNC(=O)/C(C#N)=C/c1c(N2CCN(c3ccccc3)CC2)nc2c(C)cccn2c1=O 7.08 µM [fluorescent, side channel, full curve]
CCOc1ccc(C(=O)N/N=C(/C)C2C(=O)c3ccccc3C2=O)cc1 31.6 µM [quencher, side channel, partial curve]
CCOc1ccc(NC(=O)C(=O)N/N=C/c2ccccc2F)cc1 3.55 µM [fluorescent, side channel, single point]
C=CCOn1c(=O)c(-c2ccc(F)cc2)[n+]([O-])c2ccccc21 39.8 µM [fluorescent, side channel, single point]
CCCCNC(=O)COC(=O)c1c2c(nc3ccccc13)/C(=C/c1cccs1)CC2 14.1 µM [quencher, side channel, partial curve]
N/C(=N\OC(=O)c1cc(Cl)ccc1Cl)c1ccncc1 3.55 µM [inhibitor, single point]
CCOC(=O)N1CCC(NC(=O)c2cc(S(=O)(=O)N3CCc4ccccc43)cn2C)CC1 7.08 µM [inhibitor, partial curve]
Cc1cccc(-n2ncc(C(=O)NC3CCCC3)c2C2CCN(C(=O)OC(C)(C)C)CC2)c1 10 µM [fluorescent, side channel, full curve, poor fit]
O=C(NC1CCCC1)c1cc(-c2cccs2)on1 22.4 µM [inhibitor, single point]
O=C(CSCc1ccc(Br)cc1)N1CCOCC1 0.708 µM [inhibitor, partial curve]
CCCCCCC(O)(c1ccccc1)C(CN1CCOCC1)c1ccccc1 (stereo not given) 17.8 µM [fluorescent, side channel, partial curve]
Cc1nn(CC(=O)N2CCN(c3ccccc3)CC2)c(=O)c2cccn12 3.16 µM [quencher, side channel, full curve]
COc1ccc(-c2ccc(C#N)c(OC)n2)cc1 35.5 µM [inhibitor, single point]
CCOc1ccccc1C1CC(c2cccs2)=NN1S(C)(=O)=O (stereo not given) 5.01 µM [inhibitor, full curve, poor fit]
O=c1[nH]c2cc(Cl)ccc2n1-c1ccccc1 25.1 µM [inhibitor, partial curve]

Potency, inactive:
COc1ccc2oc(-c3ccc(O)cc3)cc(=O)c2c1
N=c1ccn(Cc2ccc(Cl)c(Cl)c2)cc1
COc1ccc(OC)c(N=c2oc3cc(O)ccc3cc2C(N)=O)c1
O=C(NCc1cccs1)N[C@@H](Cc1ccccc1)C(=O)O
